Values marked as one replicate rest on one cluster of the flow cell; about a third of the high ones do not repeat.
tested on: ATP; test: switch fluorescence ratio, 500 uM ATP over buffer (Cy3 cluster intensity, sum of 5 cycles each) (fold (ratio)); higher = stronger signal-on switching upon ATP binding; sequences stand for … in TCGTCGGCAGCGTCAGATGTGTATAAGAGACAGTTTTTTTTTTTTTTTTTTTTTTTTT…TC; details: aptamer strand: ATP DNA aptamer (quencher-CACCTGGGGGAGTATTGCGGAGGAAGG + anchor), 100 nM annealed; ATP concentration: 500 uM; one replicate
Method in brief: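 Clusters with intensities outside 100-1000 RFU were excluded. The remaining Cy3-labelled switching-strand clusters on a modified Illumina MiSeq flow-cell had been annealed to 100 nM quencher-labelled ATP aptamer and imaged in selection buffer, then after 15 min with 500 uM ATP at 22 °C, for five cycles separated by NaOH stripping and re-annealing. The fluorescence ratio, averaged per switch-domain sequence, is each cluster's summed target-cycle Cy3 intensity over its summed buffer-cycle Cy3 intensity.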
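Also: ATP exposure 15 min at 22 °C before imaging.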

Sequence | switch fluorescence ratio
CAGCAAAAGG | 1.04
CAGCACACGA | 1.73
CAGCACAGCC | 1.11
CAGCACGCGG | 1.01
CAGCACTCAA | 1.04
CAGCACTTTC | 1.49
CAGCAGGGTT | 1.02
CAGCAGTTGG | 0.999
CAGCCAAA | 1.62
CAGCCAAGCT | 0.973
CAGCCACCCC | 1.21
CAGCCCTTTT | 1.07
CAGCCGAGG | 0.991
CAGCCTGGCG | 0.984
CAGCGAGCGG | 1.06
CAGCGCGAAA | 0.996
CAGCGGGTGG | 1.05
CAGCGGTTTG | 1.02
CAGCGTCATG | 1.02
CAGCGTGTTA | 1
CAGCGTTTCA | 1.05
CAGCTAGGTC | 1.01
CAGCTATGCT | 1.02
CAGCTATTAT | 0.968
CAGCTCCTTT | 0.989
CAGCTCGGGA | 0.988

Sequence | switch fluorescence ratio
CAGCTCTAAT | 0.96
CAGCTGAGGG | 1.04
CAGCTGATAG | 1.04
CAGCTGGTTG | 0.987
CAGCTTTATG | 1.02
CAGGAAAGTT | 1.03
CAGGAATGAT | 0.977
CAGGAATGTT | 1.03
CAGGACGTGC | 1.06
CAGGAGAACT | 1.02
CAGGAGAGGC | 0.683
CAGGAGGTTT | 1
CAGGAGTATG | 1.02
CAGGATAAGG | 0.951
CAGGATCGCG | 0.956
CAGGATCGTT | 1
CAGGATGGTG | 1.02
CAGGCAGTAG | 1.11
CAGGCGAATT | 1.04
CAGGCTACAG | 0.961
CAGGCTGGCT | 1.08
CAGGCTGTTA | 0.998
CAGGCTTATG | 1
CAGGGAATAT | 1.09
CAGGGAGGTA | 1.06
CAGGGCCAAG | 1.01

Sequence | switch fluorescence ratio
CAGGGCTGAC | 1.16
CAGGGCTTGC | 0.974
CAGGGGCCAC | 0.994
CAGGGGCGCT | 1.18
CAGGGGCGTA | 1.03
CAGGGGGCAA | 2.26
CAGGGTCGTA | 0.971
CAGGGTGACG | 0.95
CAGGTAAATA | 0.992
CAGGTATGGT | 0.992
CAGGTGAA | 1.36
CAGGTGGTTA | 1.19
CAGGTGTGCC | 1.03
CAGGTTCGTC | 1.03
CAGGTTGTAA | 0.975
CAGGTTTCGC | 1.01
CAGTAACGGG | 1.07
CAGTAACTAG | 1.03
CAGTACCTAG | 1.05
CAGTACGCCT | 1.08
CAGTAGTGGG | 1
CAGTATAAAA | 0.998
CAGTATATCT | 1.02
CAGTATATT | 1.02
CAGTCACAGC | 1.06
CAGTCACTGA | 1.07

Sequence | switch fluorescence ratio
CAGTCATAGC | 1.03
CAGTCATCAA | 1.02
CAGTCCTTGC | 1.24
CAGTCGCTGC | 1.08
CAGTCTCTTT | 1.04
CAGTCTTCAC | 1.03
CAGTGAGTGA | 1.03
CAGTGATGTG | 0.924
CAGTGATTCC | 1.05
CAGTGCAAAG | 1.03
CAGTGCAGGG | 0.993
CAGTGCAGTC | 1.01
CAGTGCGCGG | 1.01
CAGTGGGTCG | 0.989
CAGTGTAGAC | 1.06
CAGTGTGCA | 1.11
CAGTTAAATA | 0.993
CAGTTAGCTG | 1.03
CAGTTAGGGA | 0.989
CAGTTCTTG | 0.963
CAGTTGACGT | 1.03
CAGTTGATAA | 0.965
CAGTTGCTA | 0.952
CAGTTGGTAA | 1
CAGTTGTAG | 1.05
CAGTTGTAGC | 1.02

Sequence | switch fluorescence ratio
CAGTTTCTGG | 0.967
CAGTTTGAAT | 1
CAGTTTTCTC | 0.991
CAGTTTTGAA | 0.998
CAGTTTTGTC | 1.07
CAGTTTTTCA | 0.976
CAGTTTTTGA | 1.02
CATAAAGGGC | 0.988
CATAAAGGGG | 0.992
CATAAATCAC | 1.07
CATAACCAGA | 1.02
CATAACGATC | 1.01
CATAAGACCC | 1.08
CATAATCTGT | 1.03
CATAATGGAA | 0.952
CATACAAATC | 1.04
CATACAGCGT | 0.977
CATACCTTAA | 1.08
CATACTTTGC | 0.973
CATAGACATG | 0.983
CATAGATAAT | 1.07
CATAGATTCG | 0.996
CATAGCGTTT | 1.03
CATAGGCTGT | 1.03
CATAGTAATC | 1.91
CATAGTGGGA | 0.956

Sequence | switch fluorescence ratio
CATAGTGTCC | 1
CATAGTGTTC | 1.01
CATATACCTT | 1.29
CATATATAGG | 0.991
CATATCACTG | 1.01
CATATGCAAG | 1.09
CATATGGGCC | 1.03
CATATTGTTG | 1.01
CATATTTAAG | 1.01
CATATTTGGC | 1.03
CATCAATGGC | 1.08
CATCAATTCA | 1.04
CATCACAAGT | 1.06
CATCACGGTT | 1.06
CATCAGAGAG | 1
CATCAGTGCG | 1.05
CATCATACGG | 1.02
CATCCAATC | 1.72
CATCCAGTGT | 1.33
CATCCATGAC | 1.2
CATCCCGTTA | 1.14
CATCCTGCCC | 1.52
CATCGACATG | 0.995
CATCGCAGAA | 1.33
CATCGGACAG | 1.06
CATCGGGTA | 1.01

Sequence | switch fluorescence ratio
CATCGTGTTG | 1.03
CATCGTTAAT | 1.16
CATCGTTACG | 1.02
CATCT | 0.983
CATCTGGAAT | 3.3
CATCTGTCTT | 1.03
CATCTTAA | 1.03
CATGAAACGG | 1.04
CATGACAGC | 1.01
CATGACGCTA | 1.79
CATGACTAAT | 1.01
CATGAGCG | 1.03
CATGAGGTT | 1.01
CATGATAACT | 0.99
CATGATCGCC | 0.976
CATGATCGTT | 0.956
CATGATGATT | 1
CATGCATAAG | 0.967
CATGCCCGCG | 1.02
CATGCCCTGA | 1.04
CATGCCGGAC | 1.02
CATGCCGTAG | 1.01
CATGCCTGGT | 0.996
CATGCCTGTG | 1.03
CATGCGCGAA | 1.72
CATGCGCTTT | 1.37

Sequence | switch fluorescence ratio
CATGCTATCA | 0.986
CATGCTGAAC | 1.04
CATGGATTTT | 0.999
CATGGCCGGG | 1.04
CATGGCGAGC | 0.986
CATGGGCCAA | 1.02
CATGGGTATC | 1
CATGGTAACC | 0.991
CATGGTCTTC | 1.07
CATGGTGGTA | 0.99
CATGGTTTGA | 0.977
CATGTAGGGA | 0.972
CATGTCGCCC | 0.97
CATGTGAAAT | 1.03
CATGTGTCCT | 0.934
CATGTGTCTG | 1.04
CATGTTTAAA | 1.02
CATTAAATCG | 0.979
CATTAACCTC | 1.05

— the supplement of paper PMC10126150
